One assay relates to HSkMC. Put plainly: cytotoxicity call (relative viability < 0.9). As to conditions: 10 µM.
Another assay concerns HepG2. Put plainly: cytotoxicity call (relative viability < 0.9). As to conditions: 10 µM.
The next assay relates to S. aureus RN4220. Description: growth inhibition call (relative growth <= 0.2). As to conditions: 50 µM.

Some of the results follow.

With `C[C@H](CO)N1C[C@H](C)[C@H](CN(C)CC2CC2)Oc2cc(C#Cc3ccccc3F)ccc2S1(=O)=O`, the cytotoxicity call in the assay on HSkMC is “inactive”. In addition, the cytotoxicity call in the assay on HepG2 was “active”. For the same molecule, the growth inhibition call with S. aureus RN4220 is “inactive”.

As for `COc1cccc(S(=O)(=O)N2C[C@@H](O)COC[C@@H]3O[C@H](CC(=O)N4CCN(c5ccccc5)CC4)CC[C@H]32)c1`, the cytotoxicity call with HSkMC and in the assay on HepG2 was “inactive” in each case. Moreover, the growth inhibition call in the assay on S. aureus RN4220 was “inactive”.

Consider `C[C@@H]1CCCCO[C@@H](CN(C)C(=O)Nc2ccc(C(F)(F)F)cc2)[C@H](C)CN([C@H](C)CO)C(=O)c2cc(NC(=O)Nc3cccc4ccccc34)ccc2O1`, for which the cytotoxicity call with HSkMC and in the assay with HepG2 was “inactive” in each case. The growth inhibition call in the assay with S. aureus RN4220 was “inactive”.

Turning to `CO[C@H]1CN(C)C(=O)c2cc(NC(=O)Nc3ccccc3)ccc2OC[C@H](C)N(C(=O)CN(C)C)C[C@@H]1C`, the cytotoxicity call with HSkMC and in the assay on HepG2 was “inactive” each time. In the assay on S. aureus RN4220, the growth inhibition call is “inactive”.

Turning to `COc1ccc(NC(=O)Nc2ccc3c(c2)CC(=O)N([C@@H](C)CO)C[C@@H](C)[C@@H](CN(C)S(=O)(=O)c2cn(C)cn2)O3)cc1`, the cytotoxicity call in the assay on HSkMC and with HepG2 was “inactive” throughout. Moreover, the growth inhibition call with S. aureus RN4220 is “inactive”.

For `C[C@@H]1CN([C@@H](C)CO)C(=O)c2cc(NC(=O)CCN3CCOCC3)ccc2O[C@@H]1CN(C)S(C)(=O)=O`, the cytotoxicity call in the assay on HSkMC and in the assay on HepG2 was “inactive” each time. The growth inhibition call in the assay on S. aureus RN4220 is “inactive”.

Regarding `C[C@@H]1CN([C@H](C)CO)C(=O)c2cc(NC(=O)c3ccccc3)ccc2O[C@@H](C)CCCCO[C@@H]1CN(C)Cc1ccc(Cl)c(Cl)c1`, in the assay on HSkMC, the cytotoxicity call was “inactive”. For the same molecule, in the assay on HepG2, the cytotoxicity call is “active”. Also, in the assay on S. aureus RN4220, the growth inhibition call was “inactive”.

With `C[C@H]1CN([C@@H](C)CO)C(=O)c2cc(NC(=O)Nc3ccccc3)ccc2O[C@@H]1CN(C)Cc1ccc(Oc2ccccc2)cc1`, the cytotoxicity call with HSkMC was “inactive”. In addition, the cytotoxicity call with HepG2 is “active”. Also, the growth inhibition call with S. aureus RN4220 was “inactive”.

As for `C[C@H](CO)N1C[C@H](C)[C@@H](CN(C)C(=O)[C@H](C)c2ccccc2)OCc2ccccc2-c2c(n(C)c3ccccc23)C1=O`, the cytotoxicity call with HSkMC and in the assay with HepG2 was “inactive” throughout. In addition, the growth inhibition call in the assay on S. aureus RN4220 was “inactive”.

As to `C[C@@H]1CN([C@@H](C)CO)C(=O)Cc2cc(NS(C)(=O)=O)ccc2O[C@H]1CN(C)C(=O)Nc1ccc2c(c1)OCO2`, the cytotoxicity call in the assay on HSkMC and in the assay on HepG2 was “inactive” throughout. The growth inhibition call in the assay with S. aureus RN4220 was “inactive”.

As to `C[C@H]1CN([C@@H](C)CO)C(=O)Cc2cc(NC(=O)Cc3cn(C)c4ccccc34)ccc2O[C@H]1CN(C)S(C)(=O)=O`, the cytotoxicity call in the assay on HSkMC (human skeletal muscle cells) and in the assay with HepG2 was “inactive” throughout. Also, the growth inhibition call in the assay on S. aureus RN4220 is “inactive”.

As for `CCn1[nH]c(N)c2c(=O)[nH]c(=O)cc1-2`, the cytotoxicity call with HSkMC and with HepG2 was “inactive” each time. Also, in the assay with S. aureus RN4220, the growth inhibition call was “inactive”.

Regarding `C[C@@H]1CCCCO[C@H](CN(C)S(=O)(=O)c2cn(C)cn2)[C@@H](C)CN([C@H](C)CO)C(=O)c2cc(NC(=O)Nc3ccc(C(F)(F)F)cc3)ccc2O1`, the cytotoxicity call with HSkMC and in the assay with HepG2 was “inactive” each time. Besides, the growth inhibition call in the assay on S. aureus RN4220 was “inactive”.

Turning to `C[C@@H]1CN([C@@H](C)CO)C(=O)c2cccc(NS(C)(=O)=O)c2O[C@@H]1CN(C)C(=O)Nc1ccc(F)cc1`, the cytotoxicity call with HSkMC and with HepG2 was “inactive” throughout. Moreover, the growth inhibition call with S. aureus RN4220 was “inactive”.

Source of the values: the antibiotic and cytotoxicity screens of Wong et al. (2023).
